Measurements published in PubChem BioAssay AID1030 (National Center for Advancing Translational Sciences (NCATS), 2008).
About 16,000 (7.3%) of roughly 220,000 compounds were called active. This list was built around the results that the source calls inconclusive (neither active nor inactive); the mix of calls is not that of the screen. Calls come from the whole dose curve; as a rule, active = well fitted inhibition curve with a large enough effect (not every such curve was filed as active); inconclusive = small, poorly fitted or top-dose-only effect, or another doubt; inactive = no such curve, though single readings can be large or run the other way. No potency is given beside an inconclusive call; the fits are too rough.

biological target: Aldehyde dehydrogenase 1A1 (Homo sapiens) (UniProt P00352); experiment: qHTS Assay for Inhibitors of Aldehyde Dehydrogenase 1 (ALDH1A1); conditions: Purified ALDH1A1, NADH fluorescence, propionaldehyde substrate; series mostly up to 75.3 µM; activity, negative = inhibition: at the top concentration;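 for activity, negative = inhibition: plate controls were no enzyme wells and a reference inhibitor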
Chain of UniProt P00352 (P00352 whole entry, looked up): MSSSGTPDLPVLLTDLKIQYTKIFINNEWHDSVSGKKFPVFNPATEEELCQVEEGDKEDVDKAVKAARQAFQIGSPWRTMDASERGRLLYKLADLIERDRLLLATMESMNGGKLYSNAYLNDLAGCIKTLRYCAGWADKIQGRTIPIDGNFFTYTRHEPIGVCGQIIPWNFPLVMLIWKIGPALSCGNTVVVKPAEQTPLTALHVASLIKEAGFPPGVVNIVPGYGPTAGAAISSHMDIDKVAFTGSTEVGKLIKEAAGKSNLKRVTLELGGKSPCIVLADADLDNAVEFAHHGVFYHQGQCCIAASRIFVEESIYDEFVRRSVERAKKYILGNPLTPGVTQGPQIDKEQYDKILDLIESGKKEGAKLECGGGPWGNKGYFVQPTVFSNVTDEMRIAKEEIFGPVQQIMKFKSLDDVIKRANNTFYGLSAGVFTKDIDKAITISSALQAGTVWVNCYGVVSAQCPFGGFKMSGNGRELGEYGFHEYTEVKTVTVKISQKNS
Potency is the fitted concentration of half-maximal effect; tags give direction and shape of the fitted curve.

SMILES	Potency	activity, negative = inhibition
COc1ccc2[nH]c(=O)c(CN(C(=O)c3ccco3)C3CCCCC3)cc2c1	inconclusive [inhibitor, partial curve]	–
CC1(C)C=C(c2ccc(C=O)s2)CC(C)(C)N1C=O	inconclusive [inhibitor, partial curve]	–
COc1ccc(NC2SC(=O)N(C)C2=O)cc1 (centres undefined)	–	inactive: -0.839%
COc1ccc(-n2c(Cc3cccn3C)nnc2SCC(=O)Nc2cccc(Cl)c2)cc1	inconclusive [inhibitor, single point]	–
CC(OC(=O)c1ccccc1N1C(=O)C2C3CCC(C3)C2C1=O)C(=O)c1ccccc1 (centres undefined)	–	inactive: 20.1%
O=C(CSc1c[nH]c2ccccc12)N1CCCc2ccccc21	inconclusive [inhibitor, single point]	–
C=CCOc1ccc(-c2nc3c(c(=O)[nH]c(=O)n3CCCC)n2C)cc1OC	inconclusive [inhibitor, partial curve]	–
COc1ccc(CNc2oc(Cc3cccc4ccccc34)nc2C#N)cc1	inconclusive [inhibitor, single point]	–
O=C(Nc1ccc(Br)cc1)c1ccccc1CC[N+](=O)[O-]	inconclusive [inhibitor, single point]	–
O=C(N/N=C/c1ccc[nH]1)c1cc(-c2ccc(Cl)cc2)nc2ccccc12	–	inactive: 3.38%
C=CCn1c(SC(C)C(N)=O)nc2sc(CC)cc2c1=O (centres undefined)	active: 8.91 µM	–
CC1(C)Cc2nc3sc4c(=O)n(CC(=O)NCc5ccco5)cnc4c3cc2CO1	active: 22.4 µM	–
COc1cc2c(OC)cccc2cc1C(=O)O	inconclusive [inhibitor, partial curve]	–
C=CCn1c(SCc2c(C)noc2C)nc2sc3c(c2c1=O)CCCC3	inconclusive [inhibitor, partial curve]	–
CC1(C)CC(N2CCCC2)=CC(=[N+]2CCCCCC2)C1	inconclusive [inhibitor, single point]	–
COc1ccc2c(c1)c1ncn(CCN3CCNCC3)c(=O)c1n2C	inconclusive [inhibitor, partial curve]	–
COC(=O)c1cc(O)c(OCc2ccccc2)c(O)c1	–	inactive: -6.32%
Cc1cc(/C=N/NC(=O)c2ccc(O)cc2)c(C)n1CC(C)C	inconclusive [inhibitor, single point]	–
CCOC(=O)N1CCC(N2C(=O)c3ccc(C(=O)NCc4ccc(F)cc4)cc3C2=O)CC1	–	inactive: -3.93%
C=CCN(CC=C)CCOc1cc(C)ccc1[N+](=O)[O-]	inconclusive [inhibitor, partial curve]	–
O=C1CC(Cc2ccccc2)C(=O)N1CCc1ccc2c(c1)OCO2 (centres undefined)	active: 17.8 µM	–
Cc1nnc(SCC2=C(C(=O)O)N3C(=O)C(NC(=O)Cn4ncc(Cl)c4C)C3SC2)s1 (centres undefined)	inconclusive [inhibitor, single point]	–

SMILES	Potency	activity, negative = inhibition
Cc1ccc(Oc2nc3ccccn3c(=O)c2/C=C(\C#N)C(=O)Nc2c(C)n(C)n(-c3ccccc3)c2=O)c(C)c1	inconclusive [inhibitor, single point]	–
O=[N+]([O-])c1ccc(S(=O)(=O)CC(CN2CCCCC2)N2CCCCC2)cc1 (centres undefined)	active: 7.08 µM	–
Cc1ccc(S(=O)(=O)N/N=C/c2cccc3nccnc23)cc1	inconclusive [inhibitor, single point]	–
Cc1ccc(S(=O)(=O)N2CC=C(c3c(C)n(C)c4ccccc34)CC2)cc1	inconclusive [inhibitor, single point]	–
O=C(NCc1ccccc1F)c1ccc(S(=O)(=O)Nc2cccc(C(F)(F)F)c2)cc1	–	inactive: -0.366%
COc1cc(/C=C2\C(=O)ON=C2c2ccccc2)cc(Cl)c1O	inconclusive [inhibitor, single point]	–
CCOC(=O)c1[nH]c2ccc(OC)cc2c1NC(=O)CCN1CCc2ccccc2C1	inconclusive [inhibitor, single point]	–
CC(OC(=O)c1cccnc1SCc1cc(=O)n2ccccc2n1)c1ccccn1 (centres undefined)	inconclusive [inhibitor, single point]	–
COc1ccc(NC(=O)CSC2CCCCC2)cc1	inconclusive [inhibitor, single point]	–
CC(C)Cn1c2c(c(O)c(C(=O)Nc3ccc(F)cc3)c1=O)CCCC2	inconclusive [inhibitor, partial curve]	–
COc1ccc(C(=O)Nc2ccccc2C(=O)NCCN2CCOCC2)cc1	inconclusive [inhibitor, single point]	–
O=C(Nc1ccccc1Cl)c1cc(S(=O)(=O)N2CCCCC2)ccc1N1CCOCC1	–	inactive: -4.31%
Cn1cnnc1Sc1cc(N2CCN(S(=O)(=O)c3ccccc3)CC2)ccc1[N+](=O)[O-]	inconclusive [inhibitor, single point]	–
CC1CC(=O)c2cnc(N3CCOCC3)nc2C1 (centres undefined)	inconclusive [inhibitor, single point]	–
COc1ncc2nc(-c3ccc(Cl)cc3)c(=O)n(CCc3ccccc3)c2n1	inconclusive [inhibitor, single point]	–
COc1cc2[nH]c(=O)n(CCCCCC(=O)N3CC=C(c4ccccc4)CC3)c(=O)c2cc1OC	inconclusive [inhibitor, partial curve]	–
O=C1CC(N2C(=O)/C(=C/C=C/c3ccccc3)SC2=S)C(=O)N1c1ccccc1 (centres undefined)	inconclusive [inhibitor, partial curve]	–
O=[N+]([O-])c1cc(Br)c(O)c(C=Nc2ccc(N3CCOCC3)cc2)c1	–	inactive: 1.88%
O=C(NC(=S)Nc1ccc2c(c1)OCCO2)c1cccc(Br)c1	active: 14.1 µM	–
O=C(Nc1cc(C(F)(F)F)ccc1N1CCOCC1)c1ccc(Cl)nc1	inconclusive [inhibitor, single point]	–
O=C(COc1ncnc2ccc(Br)cc12)Nc1ccc(N2CCOCC2)cc1	–	inactive: -7.03%
CCOC(=O)Cc1c(C)nc2c(-c3ccc(Cl)cc3)c(C)[nH]n2c1=O	inconclusive [inhibitor, single point]	–
